Experimental data published in PubChem BioAssay AID504332 (National Center for Advancing Translational Sciences (NCATS), 2011).
Screen size: about 350,000 compounds; about 31,000 (8.9%) were called active. This list was built around the results that the source calls inconclusive (neither active nor inactive); the mix of calls is not that of the screen. The call rests on the fitted dose curve; in most records, active means well fitted inhibition curve with a large enough effect; inconclusive means small, poorly fitted or top-dose-only effect; inactive means no such curve, though single readings can be large or run the other way. A potency beside an inconclusive call is a rough fit, not a confirmed value.

Molecular target: Histone-lysine N-methyltransferase EHMT2 (Homo sapiens) (UniProt Q96KQ7)
Sequence of UniProt Q96KQ7 (Q96KQ7 whole entry, looked up): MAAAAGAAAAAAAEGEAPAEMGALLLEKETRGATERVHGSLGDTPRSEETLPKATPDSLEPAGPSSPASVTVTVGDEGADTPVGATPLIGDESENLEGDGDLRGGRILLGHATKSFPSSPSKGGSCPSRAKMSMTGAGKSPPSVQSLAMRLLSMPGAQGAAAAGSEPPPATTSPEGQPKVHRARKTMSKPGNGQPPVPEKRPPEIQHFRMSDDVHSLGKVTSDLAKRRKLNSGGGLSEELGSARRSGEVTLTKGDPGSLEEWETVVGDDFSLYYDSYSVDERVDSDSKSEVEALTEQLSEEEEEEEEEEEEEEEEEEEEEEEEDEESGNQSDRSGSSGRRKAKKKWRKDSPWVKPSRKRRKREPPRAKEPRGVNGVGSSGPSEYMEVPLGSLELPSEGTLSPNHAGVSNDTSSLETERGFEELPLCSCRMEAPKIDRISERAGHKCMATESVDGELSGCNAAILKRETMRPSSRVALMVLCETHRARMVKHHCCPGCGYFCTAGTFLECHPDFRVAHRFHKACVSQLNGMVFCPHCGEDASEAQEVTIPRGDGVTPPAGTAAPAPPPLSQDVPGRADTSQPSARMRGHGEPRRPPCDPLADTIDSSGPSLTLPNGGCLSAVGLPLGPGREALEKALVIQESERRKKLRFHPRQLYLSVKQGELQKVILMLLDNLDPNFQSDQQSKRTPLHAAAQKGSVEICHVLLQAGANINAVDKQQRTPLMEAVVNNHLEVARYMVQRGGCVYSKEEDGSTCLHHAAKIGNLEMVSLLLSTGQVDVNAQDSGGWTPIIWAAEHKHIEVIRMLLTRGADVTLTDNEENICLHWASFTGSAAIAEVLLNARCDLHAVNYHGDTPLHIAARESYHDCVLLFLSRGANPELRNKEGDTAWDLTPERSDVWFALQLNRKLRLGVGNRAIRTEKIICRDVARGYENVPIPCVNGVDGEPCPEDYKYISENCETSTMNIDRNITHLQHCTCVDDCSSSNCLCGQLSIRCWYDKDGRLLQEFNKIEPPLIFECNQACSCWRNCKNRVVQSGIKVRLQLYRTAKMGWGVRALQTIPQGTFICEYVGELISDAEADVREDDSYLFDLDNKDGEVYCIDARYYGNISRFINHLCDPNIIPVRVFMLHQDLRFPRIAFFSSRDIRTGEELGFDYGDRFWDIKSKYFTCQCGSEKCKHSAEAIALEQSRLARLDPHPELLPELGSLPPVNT
Test: qHTS Assay for Inhibitors of Histone Lysine Methyltransferase G9a; further: nearly all actives have a fitted effect of over 75% in size
Conditions: G9a H3K9 monomethylation, AlphaScreen, 2 h; activity, negative = inhibition: at 59 µM (top of the series) unless noted
Summary of the method: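 AlphaScreen detection with an anti-monomethyl H3K9 antibody quantified product after a 2 h room-temperature reaction containing 500 nM biotinylated H3K9 peptide, 20 µM SAM and 20 nM enzyme, which had been preincubated 15 min with compound.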
On the % scale 0 is the no-effect control and ±100 the full control effect; potency means the concentration at half of the fitted maximal effect; tags describe the fitted curve by direction and shape.

Structure (SMILES)	activity, negative = inhibition	Potency
Cc1ccc(Cn2c(=N)n(CC(O)c3ccco3)c3ccccc32)cc1 (stereo not given)	inactive: -45.9% [at 12.7 µM]	–
Cc1ccc(NC(=O)CN2C(=O)NC3(CCC(C)CC3)C2=O)c(Cl)c1 (stereo not given)	–	inconclusive: 89.1 µM [inhibitor, single point]
COc1ccccc1N1CCN(c2ccc(-c3ccccc3)nn2)CC1	inconclusive: -66.6% [inhibitor]	–
Cc1ccc(NC(=O)CCn2cccc2)cc1Cl	–	inconclusive: 56.2 µM [inhibitor, partial curve, poor fit]
O=C(O)CCCN1C(=O)NC2NC(=O)NC21 (stereo not given)	inactive: 5.48% [at 12.7 µM]	–
CCC(=O)NNC(=S)NC(=O)c1ccc(C)cc1	inactive: 10.6% [at 0.501 µM]	–
O=C(Oc1cccnc1)c1cc(S(=O)(=O)N2CCCCC2)ccc1Cl	–	inconclusive: 20 µM [inhibitor, partial curve, poor fit]
CSc1ncccc1C(=O)OCC(=O)Nc1ccc2c(c1)CCC2	inactive: -6.94%	–
CC(CNC(=O)c1ccc(CSc2nc3ccncc3n2Cc2ccccc2)cc1)c1ccccc1 (stereo not given)	–	inconclusive: 8.91 µM [inhibitor, partial curve, poor fit]
Clc1cccc(OCCn2cncn2)c1Cl	–	inconclusive: 3.55 µM [inhibitor, single point]
COc1ccccc1C(=O)NNC(=O)C12CC3CC(CC(C3)C1)C2	–	inconclusive: 50.1 µM [inhibitor, partial curve, poor fit]
CC(O)CN1C(=O)C(CC(=O)Nc2ccc(Cl)cc2)SC1=Nc1ccccc1 (stereo not given)	–	inconclusive: 3.16 µM [inhibitor, single point]
Cc1ccc2nc(CSc3nc(C)ccc3C#N)[nH]c2c1	–	active: 2.82 µM
Cc1cc(C)nc(SCC(=O)N/N=C/c2cccn2-c2cccc(C(F)(F)F)c2)n1	–	inconclusive: 35.5 µM [inhibitor, single point]
COc1ccc(C2(CNC(=O)c3cccc([N+](=O)[O-])c3)CCCCC2)cc1OC	inactive: 11.9%	–
CCN(CC(=O)Nc1ccc(OC)cc1)C(=O)c1ccc2c(c1)NC(=O)CS2	–	active: 44.7 µM
Cc1ccc(C)c(N(C(=O)c2snc(C(N)=O)c2N)C(C(=O)NCC2CCCO2)c2cccs2)c1 (stereo not given)	inactive: 12.2% [at 102 µM]	–
Nc1cc2c(cc1[N+](=O)[O-])OCO2	–	active: 50.1 µM
CCOC(=O)c1cc(S(=O)(=O)N2CCN(c3ccc(C(C)=O)cc3)CC2)[nH]n1	–	active: 12.6 µM
COCCNC(=O)c1onc(CSc2ccccc2)c1C(=O)NCCOC	inactive: 20.6% [at 2.33 µM]	–
